Data: publication PMC6919601, “Identification of Plasmodium dipeptidyl aminopeptidase allosteric inhibitors by high throughput screening” (PLoS ONE, 2019)
Among all 110,000 compounds or so, about 230 (0.21%) showed an effect of 50% or more. Some of the results follow.

Target: DPAP1 (Plasmodium falciparum, UniProt Q8IIJ9)
Test: primary screen, percent inhibition; read by cleavage of a fluorogenic dipeptide substrate; higher = more effect of the substance
Set-up: species or system P. falciparum D10 trophozoite lysates; single well
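Also: 30 min substrate incubation versus DMSO and 10 µM JCP410 controls.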

Sequence of DPAP1 (Q8IIJ9 whole entry, looked up): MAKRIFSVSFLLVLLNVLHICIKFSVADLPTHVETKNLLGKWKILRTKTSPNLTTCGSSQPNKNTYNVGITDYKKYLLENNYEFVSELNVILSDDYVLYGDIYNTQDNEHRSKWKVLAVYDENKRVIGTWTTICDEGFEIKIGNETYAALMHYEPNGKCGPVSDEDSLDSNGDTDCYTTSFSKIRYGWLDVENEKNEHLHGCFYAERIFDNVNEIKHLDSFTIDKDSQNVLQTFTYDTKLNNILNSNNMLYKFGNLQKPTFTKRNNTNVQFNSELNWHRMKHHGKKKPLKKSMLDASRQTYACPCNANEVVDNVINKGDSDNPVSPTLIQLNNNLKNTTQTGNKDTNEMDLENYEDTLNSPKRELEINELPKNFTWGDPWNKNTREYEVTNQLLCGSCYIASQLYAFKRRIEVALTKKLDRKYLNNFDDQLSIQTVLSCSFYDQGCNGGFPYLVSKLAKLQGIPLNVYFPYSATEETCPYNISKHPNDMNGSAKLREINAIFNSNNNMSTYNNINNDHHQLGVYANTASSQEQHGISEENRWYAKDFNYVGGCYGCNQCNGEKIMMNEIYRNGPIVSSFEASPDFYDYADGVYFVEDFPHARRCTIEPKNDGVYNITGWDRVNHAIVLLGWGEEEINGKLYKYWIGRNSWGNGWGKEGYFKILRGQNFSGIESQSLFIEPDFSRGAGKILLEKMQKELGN

Structure (SMILES)	% Inhibition @ 10 uM [%]
COc1cccc(NC2=C(Cl)C(=O)N(c3ccccc3)C2=O)c1	6.84
COc1ccc(CCNC(=O)CCn2nc(-c3ccc(Cl)cc3)ccc2=O)cc1OC	-0.267
O=C1OC(c2ccco2)=N/C1=C\c1ccco1	1.12
COc1cccc(CNC(=O)c2ccc3c(c2)sc2nc(-c4ccc(F)cc4)cn23)c1OC	-0.613
C=C(C)CSC1=C(C#N)C(c2ccc(Cl)cc2Cl)CC(=O)N1 (centres unmarked)	4.52
CCCCn1c(CCCO)nc2ccccc21	-2.04
Cn1c(C(=O)O)c(CNCCCN2CCc3ccccc3C2)c2ccccc21	5.09
O=C(O)/C=C/C(=O)N1CCCc2ccccc21	-0.239
CC(=O)N1N=C(c2ccc(Br)cc2)CC1c1ccc(F)cc1 (centres unmarked)	-3.13
COc1ccc(-c2cc(C)no2)cc1S(=O)(=O)N(CCN1CCOCC1)Cc1ccco1	2.41
CC(=O)Nc1ccc(S(=O)(=O)Nc2nc(-c3ccc(C(C)(C)C)cc3)cs2)cc1	1.83
Cc1cc(C)c2c(/N=C/N(C)C)c(C(=O)N3CCN(c4ncccn4)CC3)sc2n1	-3.37
COc1ccc(OC)c(C2CC(=O)C3=C(C2)NC(=O)CC3c2ccc(Cl)cc2Cl)c1 (centres unmarked)	-1.7
Cc1nc2c(-c3ccc(F)cc3)c(C)nn2c(C)c1CCC(=O)N1CCCC1	-0.465
CC(C)C[C@H](NC(=O)c1ccccc1Cl)C(=O)NCC#N	-3.04
O=C(O)C1CCCCC1C(=O)N1CC=C(c2ccccc2)CC1 (centres unmarked)	-2.9
Oc1ccc(Nc2ccnc3cc(Cl)ccc23)cc1	13.1
CCOc1ccc(N(C(C)C(=O)Nc2c(C)cccc2C)S(C)(=O)=O)cc1 (centres unmarked)	7.55
CC(C)Cc1cc(C(=O)N2CCN(Cc3noc(CCC(=O)N4CCCCCC4)n3)CC2)no1	0.359
O=S(=O)(/C=C/c1ccccc1)NCc1ccccc1	-1.32
Cc1cc(=O)n2nc(N(C)CC(=O)NCCCOC(C)C)sc2n1	6.06
COc1cc(/C=C2\SC(=N)N(c3ccc(Br)cc3)C2=O)ccc1OCC#N	1.59
O=C(c1cccs1)N1CCCCCC1	-4.94
Cc1ccc(C)c(C(=O)c2ccccc2C(=O)O)c1	-0.128
NC1=NC(=O)NC(C(F)(F)F)(C(F)(F)F)N1	-1.72

Structure (SMILES)	% Inhibition @ 10 uM [%]
CCC(=O)Nc1sc2c(c1C(=O)Nc1ccccc1)CCCC2	5.24
COc1ccc(NC(=O)COc2ccc(/C=C3\SC(N)=NC3=O)cc2OC)cc1	-1.51
O=C(c1ccncc1)N1CCN(C2CCCCC2)CC1	-3.67
Cc1cccc(-c2noc(CCC(=O)N3CCOCC3)n2)c1	-0.666
COc1ccc(-c2cc3c(=O)n(CC(=O)NCCN4CCOCC4)ncn3n2)cc1	9.77
c1ccc(CN2CCC(NC3CCCCCC3)CC2)cc1	4.61
O=C1OC(c2ccc(Cl)cc2)=N/C1=C\c1coc2ccccc2c1=O	7.31
CC(=O)NCC/N=C(\C)c1sc2ccccc2c1O	-3.51
CC1CCN(C(=O)CCC(=O)N2Cc3ccccc3Oc3ncccc32)CC1	4.36
N#CC1=C(N)Oc2cc(N)ccc2C1c1ccc(F)c(F)c1 (centres unmarked)	3.01
COc1ccccc1N1CCN(Cc2ccc(C)cc2C)CC1	1.63
CCOC(=O)C1=C(CN2CCC3(CC2)OCCO3)NC(=O)NC1c1cccc(OC)c1OC (centres unmarked)	93
CCO/C(O)=C1\C(C)=NC2=C(C(=O)CC(c3ccc(Cl)cc3)C2)C1c1cc(OC)ccc1OC (centres unmarked)	19.4
O=C(Nc1ccc2c(c1)OCO2)c1ccc([N+](=O)[O-])cc1	1.35
c1ccc(CC(NC2CCN(Cc3ccccc3)CC2)c2ccccc2)cc1 (centres unmarked)	1.57
CC(=O)Nc1c(C(=O)c2cccs2)oc2ccccc12	1.15
Cc1coc2cc3oc(=O)c(CC(=O)NCc4ccc5c(c4)OCO5)c(C)c3cc12	0.895
Cc1onc(-c2ccccc2)c1C(=O)Nc1ccc(Cl)cc1Cl	-1.88
Cc1ccccc1OCC(=O)Nc1ccc(Br)c(Cl)c1	-2.19
CC(C)NS(=O)(=O)c1ccc(OCC(=O)N2CCN(C)CC2)cc1	-2.9
NC(=O)C1CCCCc2c1[nH]c1ccc(Cl)cc21 (centres unmarked)	-1.2
COc1ccc(OC)c(CCNC(=O)Cn2cc3c(n2)CCCCC3)c1	-11.1
O=C(Nc1ccc(S(=O)(=O)NC2CCCCC2)cc1)Nc1cccc(Cl)c1	1.83
OC1=C2C(=Nc3nc(SCc4ccccc4)nn3C2c2ccc(O)cc2)CCC1 (centres unmarked)	-4.67
COC(=O)c1sccc1N(Cc1ccc(F)cc1)S(C)(=O)=O	10.1
